# The full ranking holds about 33,000 sequences; the median of “E-score (-0.5 to 0.5)” is about -0.035, and the highest 2% start at about 0.34. The list shows a part of the results.
# Target: T1, Mot3 (UniProt P54785)
# T1 sequence: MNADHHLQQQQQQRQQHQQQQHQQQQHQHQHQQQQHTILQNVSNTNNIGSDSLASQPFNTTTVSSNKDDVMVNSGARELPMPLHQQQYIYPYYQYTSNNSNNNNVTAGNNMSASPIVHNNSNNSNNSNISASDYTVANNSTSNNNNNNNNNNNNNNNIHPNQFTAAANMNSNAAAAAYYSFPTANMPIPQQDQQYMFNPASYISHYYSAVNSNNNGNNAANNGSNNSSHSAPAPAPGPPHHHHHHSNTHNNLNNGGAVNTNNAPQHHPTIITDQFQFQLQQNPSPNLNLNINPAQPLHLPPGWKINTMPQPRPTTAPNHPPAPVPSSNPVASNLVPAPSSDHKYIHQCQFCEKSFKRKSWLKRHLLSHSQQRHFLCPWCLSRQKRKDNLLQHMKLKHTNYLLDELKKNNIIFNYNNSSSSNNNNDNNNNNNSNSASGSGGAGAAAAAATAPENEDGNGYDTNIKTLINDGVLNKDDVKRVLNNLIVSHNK
# Experiment: PBM E-score (8-mer binding enrichment) (E-score (-0.5 to 0.5)); higher = stronger / more preferred TF binding; most listed sequences are background and not binding sites
# Settings: protein concentration: 200 nM; construct: GST-full length
# Summary of the method: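 Full-length yeast transcription factors or their DNA-binding domains, GST-tagged and expressed with PURExpress, were applied at about 100-200 nM to universal all-10-mer Agilent arrays. These arrays had been made double-stranded by primer extension on fresh or once-stripped slides. Detection used fluorescent anti-GST, normalisation used masliner, and E-scores for ungapped eight-base words pooled with reverse complements came from the Universal PBM Analysis Suite.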
row,Sequence,PBM E-score
1,AGGGCTCC,-0.248
2,AAACTTCG,0.0118
3,AACAGACG,0.039
4,GCAAAGAC,-0.122
5,ACAATAGT,0.109
6,AAGAATAA,0.116
7,ACATCGGC,0.0326
8,GCATTCAC,0.0735
9,AAGGAGCT,0.0272
10,CTACATGC,0.355
11,GTCGTATA,0.0301
12,AATGCCAC,-0.227
13,ATCTGGCA,0.0111
14,CCAGACGA,-0.133
15,ACGGCAAG,-0.116
16,ACTTGGAA,0.0328
17,CTACTCAA,0.219
18,CCGTGTAA,0.403
19,CCACAAGC,-0.132
20,CAACGCCG,-0.0286
21,ACTCAGTA,0.0267
22,GACTCAGC,-0.144
23,AACAGAAG,0.0357
24,GCGGGGCA,-0.27
25,CAGCTTTC,-0.181

row,Sequence,PBM E-score
1,TCTGCGAA,-0.0732
2,CGAGCAAG,-0.136
3,ACAGTTCT,-0.132
4,GCGATTGA,-0.147
5,CTACGCGC,0.168
6,GCGGTGAC,-0.152
7,TAAGGCCA,0.211
8,ACGTGTCA,0.342
9,ACTCAATG,0.075
10,ACGATTCT,0.176
11,GTTTTATA,0.101
12,GAGGGTAA,-0.231
13,ACCTCGGG,-0.205
14,CATTTATC,0.0368
15,AACTCCCT,-0.118
16,ACAAAACC,0.219
17,GACAGATC,-0.135
18,CGCCGTAC,-0.00243
19,GACGACCC,-0.195
20,GCATCTAC,0.0529
21,CTGCTCTC,-0.0677
22,ACTCCGAG,-0.00559
23,AAGCTTTA,0.0683
24,CTCCTTTC,-0.144
25,CAGCGTAC,-0.0299

row,Sequence,PBM E-score
1,GGGTCGAC,-0.128
2,CTCCGGCA,-0.274
3,AATGTCGC,0.0295
4,ACACTTCC,-0.0917
5,GACCCAAC,-0.209
6,CCAAGGCA,0.458
7,ACCGTGTC,0.216
8,ATGGGTTC,-0.2
9,AGGGTATA,-0.013
10,TCAAATAA,-0.0852
11,ATTTCTCA,-0.148
12,CAGGTCGC,-0.225
13,CGGGGTAC,-0.191
14,ACTGTAGA,0.032
15,GCCTATCA,0.0862
16,CGTATAAA,0.223
17,ATGTGATC,0.245
18,CCATCACC,-0.108
19,GGTCGCAA,-0.0835
20,GCGGGGGA,-0.244
21,ATCACTTG,0.0864
22,ATATAGGA,0.176
23,CTACGTAG,0.216
24,AAGCGTCT,-0.234
25,GGATTTTA,-0.0248

row,Sequence,PBM E-score
1,TCTAATCA,-0.00325
2,CATGCTTA,0.118
3,AAATCCTG,0.0801
4,CACCGTAC,-0.00522
5,AGTGGCTA,-0.213
6,ACGAACAC,0.144
7,TGGAAACA,-0.129
8,GAGATTCA,-0.181
9,GTAATCGA,0.212
10,CCTAAAGA,0.0822
11,ATGTAAGC,0.267
12,TATTATCA,0.0573
13,CAATGACG,-0.076
14,AGGCCTTA,-0.0962
15,CGGCGTCA,-0.137
16,CTTTTTAA,0.0727
17,CTCTGCAG,-0.0721
18,AAGATCTT,0.0925
19,CGTTTCCA,-0.0535
20,CTCGTTTA,0.097
21,CAACTATG,0.0723
22,CAGGACTA,-0.16
23,CGATTTCA,0.0519
24,CCCTTGAC,-0.242
25,CGGAACTC,-0.29

row,Sequence,PBM E-score
1,ACTATCAA,0.0723
2,CCAGCCGA,-0.311
3,ATGAGAAC,0.00278
4,ATCATGAC,0.143
5,AATAGACC,-0.239
6,GATGTCAC,-0.0418
7,ACCGTAAT,-0.0455
8,ACAAGCGG,0.249
9,CGTTTCCC,-0.217
10,CCTACTCA,-0.046
11,GGATAACC,-0.143
12,CTCGAGAG,-0.177
13,AAGTTATC,0.0688
14,TGAACTAA,0.0207
15,AATGTACC,0.105
16,AGCCCCTA,-0.269
17,GAGGCCCA,-0.276
18,ACAGTGAA,0.046
19,GACCTGAC,-0.194
20,AGAGGGCG,-0.133
21,GTAGGAGA,-0.184
22,AAAGACAG,0.141
23,GGCATAAA,-0.108
24,CCCAGTAG,-0.042
25,AAGCGGAG,0.0428

row,Sequence,PBM E-score
1,CCCATCTC,-0.269
2,CTCCGTAA,0.0286
3,CGCGACAG,-0.0952
4,CGCACAGA,-0.0875
5,CCTCTGAG,-0.00393
6,TACCGCAA,0.119
7,CCCCCAAA,-0.183
8,ACATCCCC,-0.00997
9,ATGCCCCG,-0.323
10,AGAAACGA,0.0178
11,ACACGTTG,0.305
12,GAGATCGC,-0.0212
13,CCATGGTA,-0.0768
14,CATCCTGA,0.0269
15,ACGGTGAG,-0.142
16,CGAGACTA,-0.0793
17,CGCTTGGC,-0.0702
18,AGTTTAAC,0.0654
19,GATGCGGC,-0.145
20,CGGACCTC,-0.389
21,GCTATAGA,-0.197
22,CCGGAGTC,-0.231
23,CTGCCTGC,0.336
24,CACCCCTA,-0.314
25,AGTAGACC,-0.3

row,Sequence,PBM E-score
1,GTAGCCCA,-0.122
2,AGCCTGGC,-0.0899
3,CGGAACGC,-0.0837
4,GCAGGGGA,-0.253
5,AATCTCTA,-0.0669
6,CGTTGCAA,0.0242
7,ATACCCTA,-0.062
8,CTGTATCC,-0.115
9,CAAGCTCG,-0.0504
10,CCGTTGGC,-0.181
11,ATAAACGC,0.0644
12,GCTAAGAC,-0.121
13,CAATATGA,0.0247
14,CACCGCCG,-0.175
15,AGCCATGG,-0.166
16,AACGGCTT,-0.247
17,GCAGGTGA,-0.0497
18,CTCATGTC,0.191
19,CAGATGAG,-0.0581
20,ATCGGTTC,0.0968
21,AGCCTTCC,-0.137
22,TACGGCTA,-0.247
